Source: PubChem BioAssay AID1347055 (National Center for Advancing Translational Sciences (NCATS), 2019)
Out of some 54,000 compounds screened, about 120 (0.22%) were called active. Inconclusive results, whose numbers are uncertain, are shown with a selection of clear calls. The call rests on the fitted dose curve; in most records, active means well fitted inhibition curve with a large enough effect; inconclusive means small, poorly fitted or top-dose-only effect, or effect the other way; inactive means flat fitted curve, though single readings scatter. No potency is given beside an inconclusive call; the fits are too rough.

target: Fumarate hydratase, mitochondrial (Homo sapiens) (UniProt P07954); experiment: Identification of activators of human fumarate hydratase by quantitative high-throughput screening; settings: FH coupled MDH/diaphorase resazurin fluorescence, 15 min; activity change, negative = inhibition: at 79.9 µM (top of the series); further: the screen sought activators but most active calls are inhibition curves; nearly all actives have a fitted effect of over 45% in size
UniProt P07954, sequence (P07954 whole entry, looked up): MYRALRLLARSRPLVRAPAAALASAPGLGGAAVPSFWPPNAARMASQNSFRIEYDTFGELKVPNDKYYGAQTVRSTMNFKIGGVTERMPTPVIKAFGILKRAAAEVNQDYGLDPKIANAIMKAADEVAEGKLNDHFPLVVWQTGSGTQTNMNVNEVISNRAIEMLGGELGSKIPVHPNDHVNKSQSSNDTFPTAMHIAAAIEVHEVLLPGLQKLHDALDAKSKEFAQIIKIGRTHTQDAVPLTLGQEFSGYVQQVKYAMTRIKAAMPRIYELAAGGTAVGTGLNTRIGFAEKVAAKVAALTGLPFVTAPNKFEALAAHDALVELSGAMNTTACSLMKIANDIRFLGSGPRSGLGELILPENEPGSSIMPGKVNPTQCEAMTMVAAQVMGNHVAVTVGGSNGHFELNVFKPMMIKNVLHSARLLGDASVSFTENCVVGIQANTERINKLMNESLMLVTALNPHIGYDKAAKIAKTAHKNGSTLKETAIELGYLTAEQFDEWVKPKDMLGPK
On the % scale 0 is the no-effect control and ±100 the full control effect; potency means the concentration at half of the fitted maximal effect; tags describe the fitted curve by direction and shape.

Structure (SMILES) | Potency | activity change, negative = inhibition
Cc1ccc(CNC(=O)c2cnn(-c3cccc(C)c3)c2C2CCN(C(=O)OC(C)(C)C)CC2)cc1 | inconclusive [inhibitor, partial curve, poor fit] | –
COc1cc(NC(=O)Cn2c(=O)n(CC3CCCO3)c(=O)c3ccccc32)cc(OC)c1 (stereo not given) | inconclusive [inhibitor, partial curve, poor fit] | –
CCOc1ccc(CCNc2nc3ccccc3n3c(C)nnc23)cc1OCC | – | inactive: -8.15%
COc1ccc(-n2cc(-c3ccccc3)c3c(NC4CCCC4)ncnc32)cc1 | inconclusive [inhibitor, single point] | –
Cc1c(-c2cccc(NC(=O)Nc3ccc(Cl)cc3)c2)nc2ncccn12 | – | inactive: -23.5%
Cc1cccc(Oc2cnc(=O)[nH]c2)c1 | – | inactive: 6.66%
CCc1ccc(CNC(=O)c2cc3ccccn3n2)cc1 | – | inactive: -12%
Cc1ccc(CNc2oc(-c3ccc(COc4ccc(C)cc4)o3)nc2C#N)cc1 | inconclusive [inhibitor, partial curve] | –
CCOc1nc2c(N)ncnc2n1CC | – | inactive: -8.33%
O=C(CSc1ncc(-c2ccccc2)[nH]1)Nc1ccc(Cl)cc1 | inconclusive [inhibitor, partial curve] | –
CCOc1ccc(Nc2c(S(=O)(=O)c3ccc(Cl)cc3)cnc3ccc(OCC)cc23)cc1 | inconclusive [inhibitor, partial curve] | –
CN(Cc1ccccc1)S(=O)(=O)c1ccc2[nH]c3c(c2c1)CCCCC3 | inconclusive [inhibitor, single point] | –
COc1ccc(-c2cc3nc(C)c(CCC(=O)N4CCN(c5ccc(F)cc5)CC4)c(C)n3n2)c(OC)c1 | inconclusive [inhibitor, partial curve, poor fit] | –
NS(=O)(=O)c1ccc(CCNc2ncnc3c2cnn3-c2cccc(Cl)c2)cc1 | inconclusive [inhibitor, single point] | –
Cc1ccc(-c2nnc(Nc3cccc(O)c3)c3ccccc23)cc1S(=O)(=O)NCC1CCCO1 (stereo not given) | inconclusive [inhibitor, single point] | –
CC1CCN(S(=O)(=O)c2ccc3c(c2)c(=O)c(C(=O)NC(C)c2ccccc2)cn3C)CC1 (stereo not given) | inconclusive [inhibitor, partial curve, poor fit] | –
Cc1nn2c(=O)cc(COC(=O)c3cccc(NC(=O)c4ccc(C(C)(C)C)cc4)c3)nc2s1 | – | inactive: 6.33%
COc1ccc(C)cc1NC(=O)CSc1ccc(-c2ccccn2)nn1 | inconclusive [inhibitor, partial curve, poor fit] | –
CC(C)(C)OC(=O)N1CCC(c2c(C(=O)Nc3ccc4c(c3)OCCO4)cnn2-c2ccccc2)CC1 | inconclusive [inhibitor, partial curve, poor fit] | –
Cc1ccc(S(=O)(=O)c2nc(-c3ccco3)oc2SCC(C)C)cc1 | inconclusive [inhibitor, single point] | –

Structure (SMILES) | Potency | activity change, negative = inhibition
C=CC(C)(O)CC/C=C(\C)C(=O)OCC1OC(OC2CCC3(C)C(CCC4(C)C3CC=C3C5CC(C)(C)C(O)CC5(C(=O)O)CCC34C)C2(C)C)C(O)C(OC2OC(CO)C(O)C(OC3OC(CO)C(O)C(OC4OC(COC5OC(CO)C(O)C(O)C5O)C(O)C(O)C4O)C3O)C2O)C1O (stereo not given) | – | inactive: 2.46% [at 13.5 µM]
Cc1cnc2c(c1SCC(=O)Nc1ccc(F)cc1F)c(=O)n(C)c(=O)n2C | inconclusive [inhibitor, full curve, poor fit] | –
CCOc1ccc(OCC(=O)Nc2nnc3n2CCS3)cc1 | inconclusive [activator, single point] | –
Cc1ccc(N(CC(=O)Nc2ccc(C)c(F)c2)S(=O)(=O)c2c(C)n[nH]c2C)cc1 | – | inactive: -20.2%
CC(C)c1ccc(NC(=O)c2cc(S(=O)(=O)NCc3ccccc3Cl)ccc2F)cc1 | inconclusive [inhibitor, single point] | –
COc1ccc(-c2n[nH]c3c2C(c2ccc(O)cc2)N(c2ccc(Br)cc2)C3=O)cc1 (stereo not given) | inconclusive [inhibitor, partial curve, poor fit] | –
CCN(CC)C(=O)c1ccc(Nc2nc(OCC3CCCCC3)c3[nH]cnc3n2)cc1 | inconclusive [inhibitor, single point] | –
Cn1ncc(Cl)c1-c1cc(C(=O)N[C@H](CN)Cc2ccc(F)c(F)c2)sc1Cl | – | inactive: 1.41%
Cc1cc(N2CCOCC2)cc2[nH]c(-c3c(NCC(O)c4cccc(Cl)c4)cc[nH]c3=O)nc12 (stereo not given) | inconclusive [inhibitor, partial curve] | –
Cc1ccc(Nc2nc(C)c(NC(=O)c3ccc(C)cc3)c(Nc3ccc(C)cc3)n2)cc1 | inconclusive [inhibitor, partial curve, poor fit] | –
Cn1c(=O)n(C)c2cc(NS(=O)(=O)c3ccc(C(C)(C)C)cc3)c(NCc3ccccc3)cc21 | inconclusive [inhibitor, single point] | –
CCCNc1nc2c(c(=O)n(C)c(=O)n2C)n1CC(O)COc1ccccc1 (stereo not given) | – | inactive: -1.32%
Cc1cccc(CCNC(=O)c2c[nH]c3ccc(S(=O)(=O)Nc4ccccc4F)cc3c2=O)c1 | – | inactive: -1.62%
COc1ccccc1-c1nc(SCC(=O)Nc2ccc(C)c(C)c2)n[nH]1 | inconclusive [inhibitor, full curve, poor fit] | –
Clc1ccc(-c2nnn3c2nc(NCc2ccc4c(c2)OCO4)c2ccccc23)cc1 | – | inactive: -0.0858%
Oc1ccc(C2=Cc3ccc(O)cc3OC2)cc1 | inconclusive [inhibitor, single point] | –
Cc1ccc(C2c3[nH]c4ccccc4c3CCN2C(=O)CCc2ccccc2)cc1 (stereo not given) | inconclusive [inhibitor, partial curve, poor fit] | –
CC(C)(Oc1ccc(Cl)cc1)C(=O)Nc1nnc2n1CCS2 | inconclusive [activator, partial curve] | –
COc1ccc(-c2cn3c(n2)sc2cc(C(=O)N4CCCCC4)ccc23)cc1 | inconclusive [inhibitor, partial curve, poor fit] | –
COC(=O)c1cc(C)nc2c1c(=O)nc(SCc1c(C)cc(C)cc1C)n2C1CC1 | – | inconclusive: -38.5% [inhibitor]

Structure (SMILES) | Potency | activity change, negative = inhibition
COc1ccc(C2c3c(-c4ccc(F)cc4)n[nH]c3C(=O)N2c2ccccc2)cc1OC (stereo not given) | inconclusive [inhibitor, partial curve, poor fit] | –
CCOc1ccc(CCNC(=O)c2cc3c(-c4ccccc4F)nn(C)c3s2)cc1OCC | inconclusive [inhibitor, partial curve] | –
CCOC(=O)c1ccc(NC(=O)c2ccc(-c3cccc(Cl)c3C)o2)cc1 | – | inactive: -13.9%
Oc1c(Cl)cc(Cl)cc1Sc1cc(Cl)cc(Cl)c1O | – | inactive: -23.8% [at 53.3 µM]
C=C(C)[C@@H](C)[C@H]1O[C@]23C[C@]4(CO2)C(CCC2[C@@]5(C)CC[C@H](O[C@@H]6OC[C@H](O)[C@H](O[C@@H]7O[C@H](CO)[C@@H](O)[C@H](O)[C@H]7O)[C@H]6O[C@@H]6O[C@@H](CO)[C@H](O)[C@H]6O)C(C)(C)C5CC[C@]24C)C3[C@@](C)(O)[C@@H]1OC(C)=O (stereo not given in full) | – | inactive: 4.43% [at 20.6 µM]
Fc1ccc(N2CCN(c3ncnc4c3nc3n4CCCC3)CC2)cc1 | – | inactive: -14.5%
O=c1cc(-c2cccc(O)c2)oc2c(O)c(O)ccc12 | inconclusive [inhibitor, partial curve] | –
CCn1cc2nc(SCc3cccc(F)c3)n(CCc3ccccc3)c(=O)c2n1 | inconclusive [inhibitor, partial curve] | –
CC1CCN(S(=O)(=O)c2cn(CC(=O)Nc3ccc(F)cc3)c(=O)c3ccccc23)CC1 | inconclusive [inhibitor, single point] | –
Cc1ccc(-c2n[nH]c3c2C(c2cccs2)N(c2ccc(Cl)cc2)C3=O)cc1 (stereo not given) | inconclusive [inhibitor, partial curve, poor fit] | –
Cc1ccc(C(=O)CC2(O)C(=O)N(Cc3ccccc3)c3ccc(Br)cc32)cc1 (stereo not given) | inconclusive [inhibitor, partial curve, poor fit] | –
COc1cccc(CSc2nc(-c3ccccc3OC)nc3c2Cc2c(CO)cnc(C)c2O3)c1 | inconclusive [inhibitor, single point] | –
CSc1nn(Cc2ccc(F)cc2)c(N)c1S(=O)(=O)c1ccc(Cl)cc1 | inconclusive [inhibitor, partial curve, poor fit] | –
C[C@H]1c2cccc(O)c2C(O)=C2C(=O)[C@]3(O)C(O)=C(C(N)=O)C(=O)[C@@H](N(C)C)[C@@H]3[C@@H](O)[C@@H]21 | inactive | –
Cc1ccc(NC(=O)COCc2cc(-c3cccs3)on2)cc1Cl | – | inconclusive: -35.9% [inhibitor]
COc1ccc(-c2cc(C(F)(F)F)nc(NCc3ccc(F)cc3)n2)cc1 | inconclusive [inhibitor, single point] | –
CCOc1ccc(NC(=O)CSc2oc(-c3ccc(C)cc3)nc2S(=O)(=O)c2ccc(C)cc2)cc1 | – | inactive: -16.1%
COc1ccc(CCNc2ncnc3onc(C)c23)c(OC)c1 | – | inactive: -11.8%
CCc1ccccc1NC(=O)c1ccc(F)c(S(=O)(=O)N2CCN(c3cccc(Cl)c3)CC2)c1 | inconclusive [inhibitor, full curve] | –
Cc1cccc(CNC(=O)CN2C(=O)CSc3c2c(C)nn3-c2ccccc2)c1 | inconclusive [inhibitor, partial curve] | –
